Whole data set: some 33,000 sequences, median “E-score (-0.5 to 0.5)” near -0.017, cut for the highest 2% near 0.3. The list shows a part of the results.
target: T1, Sut1 (UniProt P53032); assay: PBM E-score (8-mer binding enrichment) (E-score (-0.5 to 0.5)); higher = stronger / more preferred TF binding; most listed sequences are background and not binding sites; settings: protein concentration: 200 nM; construct: GST-full length
T1 sequence: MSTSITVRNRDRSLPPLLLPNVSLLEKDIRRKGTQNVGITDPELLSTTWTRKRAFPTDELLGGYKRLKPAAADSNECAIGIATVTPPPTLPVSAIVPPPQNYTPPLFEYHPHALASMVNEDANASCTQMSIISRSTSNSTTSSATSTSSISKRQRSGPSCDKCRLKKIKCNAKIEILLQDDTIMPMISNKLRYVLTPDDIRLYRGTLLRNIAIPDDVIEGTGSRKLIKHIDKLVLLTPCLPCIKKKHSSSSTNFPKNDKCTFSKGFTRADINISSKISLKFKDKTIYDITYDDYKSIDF
Summary of the method: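 Universal all-10-mer Agilent arrays, double-stranded by primer extension on fresh or once-stripped slides, were probed with about 100-200 nM GST-tagged yeast transcription factors made by PURExpress. Fluorescent anti-GST detected bound protein, and masliner normalised the scans. E-scores from the Universal PBM Analysis Suite were given to each ungapped eight-base word pooled with its reverse complement.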

| Sequence | PBM E-score |
| --- | --- |
| CTTTAGTA | -0.0309 |
| AGCTGTGA | -0.106 |
| TCGAGAGA | 0.0126 |
| GCACGACA | -0.237 |
| GATTCTAC | 0.0341 |
| GTGATTAA | 0.158 |
| AAAAGTCG | 0.134 |
| ACGGAATC | 0.252 |
| AAACCAGT | -0.0312 |
| CGGCCGCA | -0.193 |
| CAATCTCA | -0.0455 |
| AAACGCGT | -0.051 |
| GCGGTTCC | 0.16 |
| AACTCCAT | 0.269 |
| CCCGGTTA | -0.115 |
| ACCCTGTG | -0.139 |
| ATACTCCA | -0.0121 |
| GCAGCCAC | -0.0917 |
| CGAACTCA | -0.0187 |
| TAGGAGCA | -0.215 |
| AGTTTGCG | -0.0449 |
| AATATTTC | 0.267 |

| Sequence | PBM E-score |
| --- | --- |
| CGATCGTA | -0.0653 |
| AAGAATGG | 0.174 |
| CTGCCCTA | -0.0386 |
| GATGTCGA | 0.175 |
| CTAAGCCC | -0.193 |
| AAGGTAAT | 0.22 |
| CTACCTAG | -0.145 |
| CGAGGGAC | -0.339 |
| AACTGGCG | -0.128 |
| CTACAAGC | -0.0782 |
| ACAAAATG | 0.141 |
| CTCGTTCC | 0.00014 |
| GGTAGCGA | -0.00384 |
| TCCTATCA | 0.0271 |
| ATTCTATA | 0.16 |
| ATACGCTG | 0.025 |
| GGACGAGA | -0.0779 |
| CTAAGGTC | -0.146 |
| CATGGGCG | -0.16 |
| AAGAACTC | 0.255 |
| GCCTGAGA | -0.155 |
| GCAAGCAC | -0.185 |

| Sequence | PBM E-score |
| --- | --- |
| TATACACA | 0.194 |
| ATGTCATG | -0.0163 |
| ATCATGTA | 0.0818 |
| GATACCGC | -0.0884 |
| ATTCGTAA | 0.177 |
| CGAGACCA | -0.0257 |
| CGTCACAA | -0.132 |
| CAGTTAGA | -0.00486 |
| CCCCTCTC | -0.295 |
| ATGATCGC | -0.106 |
| AGCGGGAA | 0.0325 |
| ATGACACA | 0.104 |
| AATTGATA | 0.268 |
| CTTCCTCA | 0.0517 |
| CAGTACCA | -0.148 |
| AGATCCTG | -0.102 |
| CAGTGGAA | -0.111 |
| GTTACGCA | -0.0591 |
| CCGCATCA | 0.0522 |
| AATTGACG | 0.0866 |
| CGGATACA | 0.176 |
| CCTTAACC | -0.177 |

| Sequence | PBM E-score |
| --- | --- |
| CCAGAGCA | -0.0943 |
| CATGGCCA | -0.251 |
| ACGATTAC | -0.0111 |
| GATTAGGC | 0.0483 |
| GAAGCTCA | -0.033 |
| CGCCTCCC | -0.29 |
| AAAACGGG | 0.164 |
| AGGCAGCC | 0.0036 |
| AATTGGGG | -0.0626 |
| AACCCGTT | -0.232 |
| GCTCAGAC | -0.101 |
| CACCCAGC | -0.249 |
| ACTCGAGT | 0.0517 |
| AGAATGAA | 0.052 |
| AGACGGTA | 0.0224 |
| TCGGCTAA | 0.00903 |
| TAGTTGGA | 0.134 |
| CCACCGAC | -0.199 |
| AATCCTGC | -0.135 |
| AAAGAGAT | -0.0263 |
